In paper PMC9911399, “Two distinct binding modes provide the RNA-binding protein RbFox with extraordinary sequence specificity”:
Numbering of substitutions follows the chain as printed; changes in the protein carry UniProt numbers. This is one part of the list.

T1: RBFOX1 RRM (Homo sapiens, UniProt Q9NWB1 109-208)
T1 sequence: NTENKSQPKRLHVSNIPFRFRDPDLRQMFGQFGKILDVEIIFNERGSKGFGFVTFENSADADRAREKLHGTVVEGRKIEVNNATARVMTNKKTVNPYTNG

B1: GCCGUAC (DNA:RNA)
RNA: GGGAGACCGGAAUUCAGAUUGUCCGCCGUACUUAAAUCCCGUCGUAGCCACCA
DNA 1: CAATCTGAATTCCGGTCTCCC
DNA 2: TGGTGGCTACGACGGGATT
B2: AAGCAUU (DNA:RNA)
RNA: GGGAGACCGGAAUUCAGAUUGUCCAAGCAUUUUAAAUCCCGUCGUAGCCACCA
DNA 1: CAATCTGAATTCCGGTCTCCC
DNA 2: TGGTGGCTACGACGGGATT
B3: GAGCGUG (DNA:RNA)
RNA: B2 RNA with A25G, A29G, U31G
DNA 1: CAATCTGAATTCCGGTCTCCC
DNA 2: TGGTGGCTACGACGGGATT
B4: CUAGCCG (DNA:RNA)
RNA: B1 RNA with G25C, C26U, C27A, U29C, A30C, C31G
DNA 1: CAATCTGAATTCCGGTCTCCC
DNA 2: TGGTGGCTACGACGGGATT
B5: GACAGGU (DNA:RNA)
RNA: B2 RNA with A25G, G27C, C28A, A29G, U30G
DNA 1: CAATCTGAATTCCGGTCTCCC
DNA 2: TGGTGGCTACGACGGGATT
B6: GACCUCU (DNA:RNA)
RNA: B2 RNA with A25G, G27C, A29U, U30C
DNA 1: CAATCTGAATTCCGGTCTCCC
DNA 2: TGGTGGCTACGACGGGATT
B7: ACCCAUG (DNA:RNA)
RNA: B2 RNA with A26C, G27C, U31G
DNA 1: CAATCTGAATTCCGGTCTCCC
DNA 2: TGGTGGCTACGACGGGATT
B8: GGAUCAA (DNA:RNA)
RNA: B1 RNA with C26G, C27A, G28U, U29C, C31A
DNA 1: CAATCTGAATTCCGGTCTCCC
DNA 2: TGGTGGCTACGACGGGATT
B9: AUUGCUC (DNA:RNA)
RNA: B2 RNA with A26U, G27U, C28G, A29C, U31C
DNA 1: CAATCTGAATTCCGGTCTCCC
DNA 2: TGGTGGCTACGACGGGATT
B10: AAAAGAU (DNA:RNA)
RNA: B2 RNA with G27A, C28A, A29G, U30A
DNA 1: CAATCTGAATTCCGGTCTCCC
DNA 2: TGGTGGCTACGACGGGATT
B11: AACAAAU (DNA:RNA)
RNA: B2 RNA with G27C, C28A, U30A
DNA 1: CAATCTGAATTCCGGTCTCCC
DNA 2: TGGTGGCTACGACGGGATT
B12: CCGGAAG (DNA:RNA)
RNA: B1 RNA with G25C, C27G, U29A, C31G
DNA 1: CAATCTGAATTCCGGTCTCCC
DNA 2: TGGTGGCTACGACGGGATT
B13: UCUGGUG (DNA:RNA)
RNA: B1 RNA with G25U, C27U, U29G, A30U, C31G
DNA 1: CAATCTGAATTCCGGTCTCCC
DNA 2: TGGTGGCTACGACGGGATT
B14: GGGCGUA (DNA:RNA)
RNA: B2 RNA with A25G, A26G, A29G, U31A
DNA 1: CAATCTGAATTCCGGTCTCCC
DNA 2: TGGTGGCTACGACGGGATT
B15: GGUCGAU (DNA:RNA)
RNA: B2 RNA with A25G, A26G, G27U, A29G, U30A
DNA 1: CAATCTGAATTCCGGTCTCCC
DNA 2: TGGTGGCTACGACGGGATT
B16: CGCGGGA (DNA:RNA)
RNA: B1 RNA with G25C, C26G, U29G, A30G, C31A
DNA 1: CAATCTGAATTCCGGTCTCCC
DNA 2: TGGTGGCTACGACGGGATT
B17: UUGAGAA (DNA:RNA)
RNA: B2 RNA with A25U, A26U, C28A, A29G, U30A, U31A
DNA 1: CAATCTGAATTCCGGTCTCCC
DNA 2: TGGTGGCTACGACGGGATT
B18: AGUUAAA (DNA:RNA)
RNA: B2 RNA with A26G, G27U, C28U, U30A, U31A
DNA 1: CAATCTGAATTCCGGTCTCCC
DNA 2: TGGTGGCTACGACGGGATT
B19: UUCUGCA (DNA:RNA)
RNA: B1 RNA with G25U, C26U, G28U, U29G, A30C, C31A
DNA 1: CAATCTGAATTCCGGTCTCCC
DNA 2: TGGTGGCTACGACGGGATT
B20: AUGGAAA (DNA:RNA)
RNA: B2 RNA with A26U, C28G, U30A, U31A
DNA 1: CAATCTGAATTCCGGTCTCCC
DNA 2: TGGTGGCTACGACGGGATT
B21: AAAUGGA (DNA:RNA)
RNA: B2 RNA with G27A, C28U, A29G, U30G, U31A
DNA 1: CAATCTGAATTCCGGTCTCCC
DNA 2: TGGTGGCTACGACGGGATT
B22: GCUAACU (DNA:RNA)
RNA: B2 RNA with A25G, A26C, G27U, C28A, U30C
DNA 1: CAATCTGAATTCCGGTCTCCC
DNA 2: TGGTGGCTACGACGGGATT
B23: UCCUCAA (DNA:RNA)
RNA: B1 RNA with G25U, G28U, U29C, C31A
DNA 1: CAATCTGAATTCCGGTCTCCC
DNA 2: TGGTGGCTACGACGGGATT
B24: AAUCUAU (DNA:RNA)
RNA: B2 RNA with G27U, A29U, U30A
DNA 1: CAATCTGAATTCCGGTCTCCC
DNA 2: TGGTGGCTACGACGGGATT
B25: CUGCUUA (DNA:RNA)
RNA: B2 RNA with A25C, A26U, A29U, U31A
DNA 1: CAATCTGAATTCCGGTCTCCC
DNA 2: TGGTGGCTACGACGGGATT
B26: GUCGUUU (DNA:RNA)
RNA: B1 RNA with C26U, A30U, C31U
DNA 1: CAATCTGAATTCCGGTCTCCC
DNA 2: TGGTGGCTACGACGGGATT
B27: UGAUGUC (DNA:RNA)
RNA: B2 RNA with A25U, A26G, G27A, C28U, A29G, U31C
DNA 1: CAATCTGAATTCCGGTCTCCC
DNA 2: TGGTGGCTACGACGGGATT
B28: GAAUAUG (DNA:RNA)
RNA: B2 RNA with A25G, G27A, C28U, U31G
DNA 1: CAATCTGAATTCCGGTCTCCC
DNA 2: TGGTGGCTACGACGGGATT
B29: AAGUCUA (DNA:RNA)
RNA: B2 RNA with C28U, A29C, U31A
DNA 1: CAATCTGAATTCCGGTCTCCC
DNA 2: TGGTGGCTACGACGGGATT
B30: GAAGUAG (DNA:RNA)
RNA: B1 RNA with C26A, C27A, C31G
DNA 1: CAATCTGAATTCCGGTCTCCC
DNA 2: TGGTGGCTACGACGGGATT
B31: GGGGGCC (DNA:RNA)
RNA: B1 RNA with C26G, C27G, U29G, A30C
DNA 1: CAATCTGAATTCCGGTCTCCC
DNA 2: TGGTGGCTACGACGGGATT

Biological target: T1, RBFOX1 RRM
Experiment: EMSA; HiTS-Eq, 1 nM pool, 10 min; buffer printed only for the single-RNA assays: 10 mM Tris pH 7.5, 150 mM NaCl, 3.4 mM EDTA, 0.001% NP-40, 30 C
Settings: tags: His6 N-terminal (pET28a); label: 5' 32P
Outline: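 Relative association constants, normalised to the cognate motif, were derived by comparing read counts of each RNA species with those of the control reaction. The RNA sequenced was the free fraction, separated by 8% native PAGE after a 10 min equilibration in 50 µL of 1 nM 5′-radiolabelled RNA (7 randomized nucleotides) with increasing concentrations of purified wild-type or mutant RbFox RRM.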

| Binder | binding signal |
| --- | --- |
| B1 | 0.0108 KA relative to UGCAUGU |
| B2 | 0.00706 KA relative to UGCAUGU |
| B3 | 0.0308 KA relative to UGCAUGU |
| B4 | 0.00693 KA relative to UGCAUGU |
| B5 | 0.013 KA relative to UGCAUGU |
| B6 | 0.00768 KA relative to UGCAUGU |
| B7 | 0.00196 KA relative to UGCAUGU |
| B8 | 0.00525 KA relative to UGCAUGU |
| B9 | 0.013 KA relative to UGCAUGU |
| B10 | 0.00221 KA relative to UGCAUGU |
| B11 | 0.00103 KA relative to UGCAUGU |
| B12 | 0.0111 KA relative to UGCAUGU |
| B13 | 0.0283 KA relative to UGCAUGU |
| B14 | 0.0139 KA relative to UGCAUGU |
| B15 | 0.00733 KA relative to UGCAUGU |
| B16 | 0.00656 KA relative to UGCAUGU |

| Binder | binding signal |
| --- | --- |
| B17 | 0.0148 KA relative to UGCAUGU |
| B18 | 0.00213 KA relative to UGCAUGU |
| B19 | 0.016 KA relative to UGCAUGU |
| B20 | 0.00765 KA relative to UGCAUGU |
| B21 | 0.00168 KA relative to UGCAUGU |
| B22 | 0.00934 KA relative to UGCAUGU |
| B23 | 0.00842 KA relative to UGCAUGU |
| B24 | 0.00173 KA relative to UGCAUGU |
| B25 | 0.0127 KA relative to UGCAUGU |
| B26 | 0.0204 KA relative to UGCAUGU |
| B27 | 0.0268 KA relative to UGCAUGU |
| B28 | 0.00979 KA relative to UGCAUGU |
| B29 | 0.00239 KA relative to UGCAUGU |
| B30 | 0.0103 KA relative to UGCAUGU |
| B31 | 0.0256 KA relative to UGCAUGU |
